Test results: PubChem BioAssay AID588795 (National Center for Advancing Translational Sciences (NCATS), 2011)
Out of some 390,000 compounds screened, about 1,400 (0.36%) were called active. Inconclusive results, whose numbers are uncertain, are shown with a selection of clear calls. The call rests on the fitted dose curve; in most records, active means well fitted inhibition curve with a large enough effect; inconclusive means small, poorly fitted or top-dose-only effect; inactive means no such curve, though single readings can be large or run the other way. A potency beside an inconclusive call is a rough fit, not a confirmed value.

Biological target: Flap endonuclease 1 (Homo sapiens) (UniProt P39748)
Chain of UniProt P39748 (P39748 whole entry, looked up): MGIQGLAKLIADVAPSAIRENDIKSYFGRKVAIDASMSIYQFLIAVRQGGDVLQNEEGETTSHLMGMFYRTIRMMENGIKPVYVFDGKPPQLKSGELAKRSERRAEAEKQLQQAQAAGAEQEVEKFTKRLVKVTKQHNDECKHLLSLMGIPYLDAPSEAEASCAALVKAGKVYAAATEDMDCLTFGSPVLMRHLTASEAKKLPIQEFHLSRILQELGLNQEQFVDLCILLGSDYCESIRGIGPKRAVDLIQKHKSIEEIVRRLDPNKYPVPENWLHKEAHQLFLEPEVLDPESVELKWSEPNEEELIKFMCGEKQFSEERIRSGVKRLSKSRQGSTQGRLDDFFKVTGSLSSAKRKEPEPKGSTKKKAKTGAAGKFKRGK
Test: qHTS Assay for the Inhibitors of Human Flap endonuclease 1 (FEN1). Further: nearly all actives have a fitted effect of over 65% in size.
Conditions: Recombinant FEN1 flap cleavage, fluorescence, 15 min; series mostly up to 114 µM
Procedure, shortened: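 Potency values derive from four-parameter Hill fits of normalized qHTS data. The reaction used 10 nM FEN1 preincubated 15 min at room temperature with compound, then 50 nM DNA substrate, read at 0 and 15 min.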
Potency means the concentration at half of the fitted maximal effect; tags describe the fitted curve by direction and shape.

Row | SMILES | Potency
1 | O=C(Nc1ccc(C2=NCCN2)cc1)c1ccc(C(=O)Nc2ccc(C3=NCCN3)cc2)c([N+](=O)[O-])c1 | active: 39.8 µM
2 | COc1ccc(-c2noc(C3CCCN(C(=O)c4ccc(F)cc4)C3)n2)cc1 (stereo not drawn) | active: 89.1 µM
3 | CCC(=O)OC1(C)C(=O)C=C2C=C(c3ccc(C#N)cc3)OC=C2C1=O (stereo not drawn) | inconclusive: 79.4 µM [inhibitor, partial curve]
4 | COc1cccc(OCc2cc(C(=O)N(C)CCOc3ccc(C)cc3)no2)c1 | inconclusive: 79.4 µM [inhibitor, partial curve, poor fit]
5 | O=C(COc1ccccc1[N+](=O)[O-])Nc1cccc(C(=O)Nc2ccccc2C(=O)O)c1 | inconclusive: 35.5 µM [inhibitor, partial curve]
6 | Cc1c(C)n(Cc2ccc(F)cc2)c2ccc(C(=O)N3CCN(c4ccccn4)CC3)cc12 | inconclusive: 44.7 µM [inhibitor, partial curve, poor fit]
7 | COC(=O)[C@H](CC(C)C)NC(=O)Nc1ccc(F)cc1 | inactive
8 | C/C(=N\NC(=O)c1cc(O)ccc1O)c1cccc(NC(=O)c2cccc(Cl)c2)c1 | inconclusive: 89.1 µM [inhibitor, single point]
9 | COc1cc(/C=C2/SC(=S)N(Cc3ccccc3)C2=O)cc(Cl)c1O | inconclusive: 56.2 µM [inhibitor, partial curve, poor fit]
10 | COc1ccccc1NC(=O)Cn1c(=O)n(-c2ccc(C)cc2)c(=O)c2c1cnn2C | inactive
11 | c1ccc2c(c1)CCN(c1ncnc3c1[nH]c1ccccc13)C2 | inconclusive: 39.8 µM [inhibitor, partial curve]
12 | CC(=O)NCCNc1nc2c(-c3cccc(C)c3)nnn2c2ccccc12 | inconclusive: 17.8 µM [inhibitor, full curve]
13 | CC1(C)CC2CC(C)(CN2C(=O)c2cc(-c3ccc(O)cc3)on2)C1 (stereo not drawn) | inconclusive: 39.8 µM [inhibitor, partial curve, poor fit]
14 | O=C(c1ccc(Br)s1)N1CCc2ccccc2C1 | inactive
15 | COc1ccc(-c2cc(C(F)(F)F)n3nc(C(=O)Nc4sc5c(c4C#N)CCC(C)C5)cc3n2)cc1OC (stereo not drawn) | inactive
16 | O=C(Nc1cccc(C(F)(F)F)c1)N(Cc1ccc(Cl)cc1)CC(O)C(F)(F)F (stereo not drawn) | inconclusive: 56.2 µM [inhibitor, partial curve, poor fit]
17 | CC(NC1=CC(=O)c2cccnc2C1=O)C(O)c1ccccc1 (stereo not drawn) | inconclusive: 79.4 µM [inhibitor, partial curve, poor fit]
18 | COc1ccc2c(c1)CC1c3c(cc4c(c3-2)OCO4)CC[N+]1(C)[O-] (stereo not drawn) | inconclusive: 31.6 µM [inhibitor, partial curve, poor fit]
19 | Cc1nnc(N2CCCC(C(=O)NCc3ccc(OC(C)C)cc3)C2)c2nn(-c3ccccc3)c(C)c12 (stereo not drawn) | inactive
20 | Cc1nn(-c2ccccc2)c(C)c1C(=O)OCC(=O)N(C)c1c(N)n(Cc2ccccc2)c(=O)[nH]c1=O | inconclusive: 89.1 µM [inhibitor, single point]
21 | Oc1ccc(/C=N/Nc2nn3cnnc3c3ccccc23)cc1 | inconclusive: 31.6 µM [inhibitor, partial curve]

Row | SMILES | Potency
22 | Cc1ccc(C)c(NC(=O)CSc2nncn2C)c1 | inconclusive: 3.55 µM [inhibitor, partial curve, poor fit]
23 | CC(C)c1ccc(NC(=O)C2C3C=CC(CC3)C2C(=O)O)cc1 (stereo not drawn) | inactive
24 | COc1ccc(-c2csc3nc(C(C)(C)C)oc(=O)c23)cc1OC | inactive
25 | CCN(CC)S(=O)(=O)c1cccc(C(=O)N/N=C/c2cc(OC)c(O)c(OC)c2)c1 | inconclusive: 89.1 µM [inhibitor, partial curve, poor fit]
26 | CCC(C(=O)NCc1ccccc1)n1ncn2c(cc3occc32)c1=O (stereo not drawn) | inactive
27 | COc1ccccc1NC(=O)C1=C(C)Nc2ncnn2C1c1ccccn1 (stereo not drawn) | inactive
28 | COc1cc2nc(N3CCNCC3)nc(N)c2cc1OC | active: 56.2 µM
29 | COc1ccc(N2CCN(c3oc(-c4ccccc4OC)nc3C#N)CC2)cc1 | inconclusive: 89.1 µM [inhibitor, partial curve, poor fit]
30 | CC(/C=N/NC(=O)CSc1ccccn1)=C\c1ccc(C(C)C)cc1 | inconclusive: 89.1 µM [inhibitor, single point]
31 | CCCn1ccc2c(OCC(=O)Nc3ccc(F)cc3F)cccc2c1=O | inactive
32 | COc1cccc(C(=O)NNC(=O)C(=O)Nc2cccc(Cl)c2C)c1 | inconclusive: 7.08 µM [inhibitor, full curve]
33 | O=C(N/N=C/c1ccc(O)cc1)Nc1cccc2nsnc12 | inconclusive: 79.4 µM [inhibitor, partial curve, poor fit]
34 | CCC(c1ccc(O)c(O)c1)C(CC)c1ccc(O)c(O)c1 (stereo not drawn) | inconclusive: 89.1 µM [inhibitor, single point]
35 | c1ccc(C(=NNc2nc3ccccc3s2)c2ccccn2)cc1 | inconclusive: 79.4 µM [inhibitor, partial curve, poor fit]
36 | COc1ccc(C(=O)Nc2c(N)nc(SCC(=O)Nc3ccc(NC(C)=O)cc3)[nH]c2=O)cc1OC | inactive
37 | O=[N+]([O-])c1cccc(CN2C(COCc3ccccc3)CCC=CS2(=O)=O)c1 (stereo not drawn) | inactive
38 | Cc1ccc(-n2ncc(C(=O)NCCN3CCN(C)CC3)c2C2CCN(C(=O)OC(C)(C)C)CC2)c(C)c1 | inactive
39 | CC(=O)c1cccc(NS(=O)(=O)c2ccc3[nH]c4c(c3c2)CCCCCC4)c1 | inconclusive: 44.7 µM [inhibitor, partial curve, poor fit]
40 | COc1ccc(-n2nc(C(=O)N(C)c3cccc(C(F)(F)F)c3)c3c4ccccc4n(C)c3c2=O)cc1 | inactive
41 | Oc1cccc(/C=N/Nc2cc(N3CCOCC3)nc(N3CCOCC3)n2)c1 | inconclusive: 79.4 µM [inhibitor, partial curve, poor fit]
42 | CC(C)C[C@H](NC(=O)c1nc[nH]c1C(=O)N[C@@H](CCCCNC(=O)OC(C)(C)C)C(=O)OC(C)(C)C)C(=O)OCc1ccccc1 | inactive

Row | SMILES | Potency
43 | Cc1ccccc1-c1n[nH]c(=S)n1/N=C/C=C/c1ccco1 | active: 15.8 µM
44 | COc1ccc(C(=O)c2sc(Nc3ccccc3F)nc2N)cc1 | inconclusive: 44.7 µM [inhibitor, partial curve, poor fit]
45 | O=C(Nc1ccc(Cl)c(Cl)c1)c1ccc(Cl)c(Cl)c1 | inactive
46 | COc1cccc(N2CC(O)=C(c3nc4ccccc4c(=O)[nH]3)C2=N)c1 | inactive
47 | CCCCCCCCCc1nc2sc3c(c2c(=O)n1NC(=O)c1ccc([N+](=O)[O-])cc1)CC(C)(C)OC3 | inconclusive: 25.1 µM [inhibitor, partial curve, poor fit]
48 | COc1ccc(-c2nc3c(c(SCC(=O)Nc4ccc(C(=O)O)cc4)n2)Cc2ccccc2O3)cc1 | inconclusive: 6.31 µM [inhibitor, full curve, poor fit]
49 | Oc1c(C(c2ccccc2)N2CCC3(CC2)OCCO3)sc2nc(-c3ccco3)nn12 (stereo not drawn) | inactive
50 | COc1ccc(NC(=O)CSc2nc3c(sc4ccccc43)c(=O)n2CCCN2CCCC2)cc1 | inconclusive: 50.1 µM [inhibitor, partial curve, poor fit]
51 | Oc1ccc(N=Cc2ccc(-c3cccs3)s2)cc1 | inconclusive: 56.2 µM [inhibitor, partial curve, poor fit]
52 | O=C(/C=C/c1ccc(Cl)cc1Cl)Nc1cccc(S(=O)(=O)NC2=NCCC2)c1 | inconclusive: 89.1 µM [inhibitor, partial curve, poor fit]
53 | COc1ccc(C(=O)/C=C2\Sc3ccccc3N2C)cc1 | inconclusive: 39.8 µM [inhibitor, partial curve, poor fit]
54 | CC(C)(C)c1ccc(OCCC(=O)OCC(=O)NC2CCCCC2)cc1 | inconclusive: 70.8 µM [inhibitor, partial curve, poor fit]
55 | O=C(Cc1ccccc1)Nc1ccc(N2CCCC2)cc1 | inconclusive: 89.1 µM [inhibitor, partial curve, poor fit]
56 | O=C(CCCn1c(=S)[nH]c2cc3c(cc2c1=O)OCO3)NCc1cccc(Cl)c1 | inconclusive: 79.4 µM [inhibitor, single point]
57 | C#CCOCCOCCOCCNc1nc(N2CCN(C(=O)CCCCCCCCCCNC(=O)[C@H](CCCCN)n3cc(C[C@@H](C)CC)nn3)CC2)nc(N2CCN(C(=O)CCCCCCCCCCNC(=O)[C@@H]([C@H](C)O)n3cc(C)nn3)CC2)n1 | active: 31.6 µM
58 | Oc1ccc2ccccc2c1C=Nc1ccc(N2CCOCC2)cc1 | inconclusive: 44.7 µM [inhibitor, partial curve, poor fit]
59 | COc1ccc(C2(C)NC(=O)N(CC(=O)NC(C)c3ccc(CC(C)C)cc3)C2=O)cc1 (stereo not drawn) | inconclusive: 89.1 µM [inhibitor, partial curve, poor fit]
60 | CCC(CN(C)C)Oc1cc(NCc2ccccc2)c2ncn(C(C)C)c2c1 (stereo not drawn) | inconclusive: 17.8 µM [inhibitor, partial curve, poor fit]
61 | Cc1nn(CCCC(=O)NCCc2ccc(Cl)cc2)c(=O)c2c1sc1ccccc12 | active: 44.7 µM
62 | COc1cc([N+](=O)[O-])ccc1-c1ccc(/C=C2\C(=O)ON=C2c2ccccc2)o1 | inconclusive: 39.8 µM [inhibitor, single point]
63 | COc1cc2nc(N3CCN(C)CC3)nc(NC3CCN(C)CC3)c2cc1OC | inconclusive: 56.2 µM [inhibitor, partial curve, poor fit]
